From patent US20250059278A1 (SICHUAN HUIYU PHARMACEUTICAL, published 2025)
Each block holds one binder with its values, some of them ahead of it.

What was measured:
[1] = target: T1, Monkey CD3 on cynomolgus HSC-F cells (cynomolgus monkey, UniProt Q95LI5 22-198; Q95LI7 23-181; Q95LI8 22-171); assay: flow cytometry on HSC-F cells
T1 construct: whole, on cells; also called Monkey CD3-expressing cynomolgus HSC-F cells; cynomolgus monkey CD3-expressing HSC-F cells

[2] = target: T2, Human CD3 on Jurkat cells (human, UniProt P07766; P09693; P04234); assay: flow cytometry on Jurkat cells
T2 construct: whole, on cells; also called Human CD3-expressing Jurkat cells; Jurkat (naturally expressing human CD3)

[3] = target: T3, Human CD3εγ recombinant antigen (acrobiosystems, Cat. No. CDG-H52W5) (human, UniProt P07766 23-126; P09693 23-116); assay: SPR chip (Carterra), antibody captured, antigen in flow
T3 construct: Bought recombinant protein

T1 sequence (Q95LI5 22-198, chain 1 of 3): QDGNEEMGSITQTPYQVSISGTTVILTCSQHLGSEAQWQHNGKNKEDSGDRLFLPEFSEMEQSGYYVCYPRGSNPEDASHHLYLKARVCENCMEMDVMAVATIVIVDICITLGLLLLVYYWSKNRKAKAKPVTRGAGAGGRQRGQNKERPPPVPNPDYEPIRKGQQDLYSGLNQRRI
T1 sequence (Q95LI7 23-181, chain 2 of 3, further chain): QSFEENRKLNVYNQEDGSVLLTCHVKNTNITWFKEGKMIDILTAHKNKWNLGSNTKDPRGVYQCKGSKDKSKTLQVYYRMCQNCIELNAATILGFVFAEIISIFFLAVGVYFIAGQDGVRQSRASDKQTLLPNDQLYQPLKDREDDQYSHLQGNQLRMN
T1 sequence (Q95LI8 22-171, chain 3 of 3, further chain): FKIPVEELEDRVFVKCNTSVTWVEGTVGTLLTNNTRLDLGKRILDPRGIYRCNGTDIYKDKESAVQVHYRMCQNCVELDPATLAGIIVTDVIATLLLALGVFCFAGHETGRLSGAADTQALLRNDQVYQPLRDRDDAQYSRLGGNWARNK

B1: CD3-MSLN bispecific antibody B30 (bispecific antibody, human IgG1, lambda)
heavy: EVQLVESGGGLVQPGGSLRLSCAASGFTFNTYAMNWVRQAPGKGLEWVARIRSKYNNYATYYADSVKDRFTISRDDSKSILYLQMNSLKTEDTAMYYCVRHSNFGNGYVSWFAYWGQGTLVTVSSASTKGPSVFPLAPSSKSTSGGTAALGCLVKDYFPEPVTVSWNSGALTSGVHTFPAVLQSSGLYSLSSVVTVPSSSLGTQTYICNVNHKPSNTKVDKKV[letters of human IgG1 Fc with changes omitted]GGGGSGGGGSEVQLVESGGGLVQAGESLRLSCAVSGNIGSIRHMGWHRQDPGKERELVATITTVGTTYYANFVKGRFTISRDNAKNTVYLQMNSLKPEDTGVYYCRATAHPTDYWGQGTQVTVSS
light: [letters of about 100 residues omitted][letters of about 100 residues omitted]
notes: [VH30]-[CH]-[L]-[3C6 VHH] with [VL-1]-[CL]
EC50 [1]: 0.272 nM | EC50 [2]: 0.304 nM | Kd [3]: 1.3 nM | koff [3]: 0.00085 s⁻¹ | kon [3]: 650000 M⁻¹ s⁻¹

B2: CD3-MSLN bispecific antibody B7 (bispecific antibody, human IgG1, lambda)
heavy: EVQLVESGGGLVQPGGSLRLSCAASGFTFNTYAMNWVRQAPGKGLEWVARIRSKYNNYATYYADSVKDRFTISRDDSKSSLYLQMNNLKTEDTAMYYCVRAGNFGNSYVSWFEYWGQGTLVTVSSASTKGPSVFPLAPSSKSTSGGTAALGCLVKDYFPEPVTVSWNSGALTSGVHTFPAVLQSSGLYSLSSVVTVPSSSLGTQTYICNVNHKPSNTKVDKKV[letters of human IgG1 Fc with changes omitted]GGGGSGGGGSEVQLVESGGGLVQAGESLRLSCAVSGNIGSIRHMGWHRQDPGKERELVATITTVGTTYYANFVKGRFTISRDNAKNTVYLQMNSLKPEDTGVYYCRATAHPTDYWGQGTQVTVSS
light: [letters of about 100 residues omitted][letters of about 100 residues omitted]
notes: [VH7]-[CH]-[L]-[3C6 VHH] with [VL-1]-[CL]
EC50 [1]: 0.693 nM | EC50 [2]: 1.36 nM | Kd [3]: 2.2 nM | koff [3]: 0.0011 s⁻¹ | kon [3]: 510000 M⁻¹ s⁻¹

B3: CD3-MSLN bispecific antibody B4 (bispecific antibody, human IgG1, lambda)
heavy: EVQLVESGGGLVQPGGSLRLSCAASGFTFNTYAMNWVRQAPGKGLEWVARIRSKYNNYATYYADSVKDRFTISRDDSKSILYLQMNNLKTEDTAVYYCVRHGNFQNSYVSWFQYWGQGTLVTVSSASTKGPSVFPLAPSSKSTSGGTAALGCLVKDYFPEPVTVSWNSGALTSGVHTFPAVLQSSGLYSLSSVVTVPSSSLGTQTYICNVNHKPSNTKVDKKV[letters of human IgG1 Fc with changes omitted]GGGGSGGGGSEVQLVESGGGLVQAGESLRLSCAVSGNIGSIRHMGWHRQDPGKERELVATITTVGTTYYANFVKGRFTISRDNAKNTVYLQMNSLKPEDTGVYYCRATAHPTDYWGQGTQVTVSS
light: [letters of about 100 residues omitted][letters of about 100 residues omitted]
notes: [VH4]-[CH]-[L]-[3C6 VHH] with [VL-1]-[CL]
EC50 [1]: 0.585 nM | EC50 [2]: 0.325 nM | Kd [3]: 1.5 nM | koff [3]: 0.0022 s⁻¹ | kon [3]: 1.5e+06 M⁻¹ s⁻¹

B4: CD3-MSLN bispecific antibody B9 (bispecific antibody, human IgG1, lambda)
heavy: EVQLVESGGGLVQPGGSLRLSCAASGFTFNTYAMNWVRQAPGKGLEWVARIRSKYNNYATYYADSVKGRFTISRDDSKSILYLQMNSLKTEDTAMYYCVRHGNFGNSYVSWFKYWGQGTLVTVSSASTKGPSVFPLAPSSKSTSGGTAALGCLVKDYFPEPVTVSWNSGALTSGVHTFPAVLQSSGLYSLSSVVTVPSSSLGTQTYICNVNHKPSNTKVDKKV[letters of human IgG1 Fc with changes omitted]GGGGSGGGGSEVQLVESGGGLVQAGESLRLSCAVSGNIGSIRHMGWHRQDPGKERELVATITTVGTTYYANFVKGRFTISRDNAKNTVYLQMNSLKPEDTGVYYCRATAHPTDYWGQGTQVTVSS
light: [letters of about 100 residues omitted][letters of about 100 residues omitted]
notes: [VH9]-[CH]-[L]-[3C6 VHH] with [VL-1]-[CL]
EC50 [1]: 0.329 nM | EC50 [2]: 1.36 nM | Kd [3]: 2.5 nM | koff [3]: 0.0035 s⁻¹ | kon [3]: 1.4e+06 M⁻¹ s⁻¹

B6: CD3-MSLN bispecific antibody B21 (bispecific antibody, human IgG1, lambda)
heavy: EVQLVESGGGLVQPGGSLRLSCAASGFTFNTYAMNWVRQAPGKGLEWVARIRSKYNNYATYYADSVKGRFTISRDDSKSSLYLQMNSLKTEDTAMYYCVRHSNFGNTYVSWFAYWGQGTLVTVSSASTKGPSVFPLAPSSKSTSGGTAALGCLVKDYFPEPVTVSWNSGALTSGVHTFPAVLQSSGLYSLSSVVTVPSSSLGTQTYICNVNHKPSNTKVDKKV[letters of human IgG1 Fc with changes omitted]GGGGSGGGGSEVQLVESGGGLVQAGESLRLSCAVSGNIGSIRHMGWHRQDPGKERELVATITTVGTTYYANFVKGRFTISRDNAKNTVYLQMNSLKPEDTGVYYCRATAHPTDYWGQGTQVTVSS
light: [letters of about 100 residues omitted][letters of about 100 residues omitted]
notes: [VH21]-[CH]-[L]-[3C6 VHH] with [VL-1]-[CL]
EC50 [1]: 1.25 nM | EC50 [2]: 67.8 nM | Kd [3]: 2.5 nM | koff [3]: 0.0022 s⁻¹ | kon [3]: 900000 M⁻¹ s⁻¹

The remaining binders from weak to strong by EC50 [1], led by results:

EC50 [1]: 10 nM | EC50 [2]: 54.2 nM | Kd [3]: 1.3 nM | koff [3]: 0.0014 s⁻¹ | kon [3]: 1.1e+06 M⁻¹ s⁻¹
B5: CD3-MSLN bispecific antibody B20 (bispecific antibody, human IgG1, lambda)
heavy: EVQLVESGGGLVQPGGSLRLSCAASGFTFNTYAMNWVRQAPGKGLEWVARIRSKYNNYATYYADSVKDRFTISRDDSKSSLYLQMNSLKTEDTAVYYCVRHGNFGNSYVSWFQYWGQGTLVTVSSASTKGPSVFPLAPSSKSTSGGTAALGCLVKDYFPEPVTVSWNSGALTSGVHTFPAVLQSSGLYSLSSVVTVPSSSLGTQTYICNVNHKPSNTKVDKKV[letters of human IgG1 Fc with changes omitted]GGGGSGGGGSEVQLVESGGGLVQAGESLRLSCAVSGNIGSIRHMGWHRQDPGKERELVATITTVGTTYYANFVKGRFTISRDNAKNTVYLQMNSLKPEDTGVYYCRATAHPTDYWGQGTQVTVSS
light: [letters of about 100 residues omitted][letters of about 100 residues omitted]
notes: [VH20]-[CH]-[L]-[3C6 VHH] with [VL-1]-[CL]

EC50 [1]: 0.237 nM | EC50 [2]: 0.159 nM | Kd [3]: 3 nM | koff [3]: 0.0025 s⁻¹ | kon [3]: 840000 M⁻¹ s⁻¹
B7: CD3-MSLN bispecific antibody B6 (bispecific antibody, human IgG1, lambda)
heavy: EVQLVESGGGLVQPGGSLRLSCAASGFTFNTYAMNWVRQAPGKGLEWVARIRSKYNNYATYYADSVKGRFTISRDDSKSSLYLQMNSLKTEDTAMYYCVRHGNFYNSYVSWFAHWGQGTLVTVSSASTKGPSVFPLAPSSKSTSGGTAALGCLVKDYFPEPVTVSWNSGALTSGVHTFPAVLQSSGLYSLSSVVTVPSSSLGTQTYICNVNHKPSNTKVDKKV[letters of human IgG1 Fc with changes omitted]GGGGSGGGGSEVQLVESGGGLVQAGESLRLSCAVSGNIGSIRHMGWHRQDPGKERELVATITTVGTTYYANFVKGRFTISRDNAKNTVYLQMNSLKPEDTGVYYCRATAHPTDYWGQGTQVTVSS
light: [letters of about 100 residues omitted][letters of about 100 residues omitted]
notes: [VH6]-[CH]-[L]-[3C6 VHH] with [VL-1]-[CL]
